Data reported in PMC4336329 (PLoS ONE, 2015).
The campaign covered roughly 310,000 compounds. About 2,200 (0.71%) showed an effect of 50% or more. Effects have a minus sign here. Some of the results follow.

Target: human ether-à-go-go-related gene (hERG) potassium channel (human, UniProt Q12809)
Assay: primary screen, population patch clamp on CHO cells stably expressing hERG

Sequence of human ether-à-go-go-related gene (hERG) potassium channel (Q12809 whole entry, looked up): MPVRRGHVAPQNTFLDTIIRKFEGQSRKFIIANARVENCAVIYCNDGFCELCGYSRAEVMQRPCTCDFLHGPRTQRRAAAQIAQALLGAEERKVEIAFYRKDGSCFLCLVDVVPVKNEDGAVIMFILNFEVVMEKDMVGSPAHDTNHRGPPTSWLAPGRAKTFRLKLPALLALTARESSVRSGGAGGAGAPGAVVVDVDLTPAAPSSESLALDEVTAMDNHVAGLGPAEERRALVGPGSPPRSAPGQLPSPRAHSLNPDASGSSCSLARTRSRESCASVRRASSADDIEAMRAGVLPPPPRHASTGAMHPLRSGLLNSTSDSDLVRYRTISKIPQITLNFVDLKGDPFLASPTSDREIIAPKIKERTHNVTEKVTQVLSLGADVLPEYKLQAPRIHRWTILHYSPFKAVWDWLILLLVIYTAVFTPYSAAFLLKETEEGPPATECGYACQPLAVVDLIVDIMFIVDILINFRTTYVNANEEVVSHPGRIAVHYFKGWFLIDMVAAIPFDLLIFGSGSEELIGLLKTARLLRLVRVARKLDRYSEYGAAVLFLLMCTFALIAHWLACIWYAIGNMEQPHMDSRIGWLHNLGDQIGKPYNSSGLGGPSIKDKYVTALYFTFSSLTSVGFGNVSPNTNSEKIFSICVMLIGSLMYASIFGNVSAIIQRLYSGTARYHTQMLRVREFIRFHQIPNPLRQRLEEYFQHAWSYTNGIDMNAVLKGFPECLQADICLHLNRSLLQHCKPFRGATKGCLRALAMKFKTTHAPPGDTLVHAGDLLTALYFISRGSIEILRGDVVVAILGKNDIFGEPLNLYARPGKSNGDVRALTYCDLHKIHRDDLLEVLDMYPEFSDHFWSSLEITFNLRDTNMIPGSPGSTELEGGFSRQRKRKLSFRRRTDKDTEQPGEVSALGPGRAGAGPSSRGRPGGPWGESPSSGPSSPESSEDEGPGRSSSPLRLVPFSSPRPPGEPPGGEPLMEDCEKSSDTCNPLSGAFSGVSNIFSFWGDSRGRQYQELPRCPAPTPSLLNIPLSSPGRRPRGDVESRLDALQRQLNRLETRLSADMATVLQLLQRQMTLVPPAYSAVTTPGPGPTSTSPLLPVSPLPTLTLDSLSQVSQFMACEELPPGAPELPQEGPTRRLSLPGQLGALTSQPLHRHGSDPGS

SMILES	hERG current change (%, negative = inhibition) at 1uM [%]
CCCN1C(=O)SC(CC(=O)Nc2ccc(C)cc2)C1=O (centres unmarked)	7.62
CN(Cc1cc(=O)n2ccsc2n1)C1CCCCC1	11.3
C=C(C)c1cccc(C(C)(C)NC(=O)Nc2nnc(C(C)C)s2)c1	4.89
COc1cc(OC)cc(C(=O)NN2CCOCC2)c1	7.2
CN(C)C(=O)c1ccc(NC(=O)CN2CCc3cc4c(cc3C2)OCCCO4)cc1	8.03
Cc1ccnc(N2C(=O)c3ccc([N+](=O)[O-])cc3C2=O)c1	12.2
COCCCn1c(-c2ccsc2)nc2c1c(=O)[nH]c(=O)n2Cc1ccccc1	9.23
COCCNC(=O)C(c1ccco1)N(C(=O)Cn1nnc2ccccc21)c1ccc(C)cc1C (centres unmarked)	11.2
CC(=O)Oc1ccccc1/C=C1\CCOC1=O	12.3
COCCn1c(SCC(=O)N2CCCc3ccccc32)nc2cccnc21	-3.04
CC(=O)Nc1ccc(OCCOc2ccc(/C=C3/C(=N)N4C=CSC4=NC3=O)cc2)cc1	14.5
COc1ccc(OCCSc2nnc(CC(=O)Nc3cccc(Cl)c3Cl)n2C)cc1	12.8
COCCN(C(=O)CSc1nc2ccc(OC)cc2[nH]1)c1c(N)n(Cc2ccccc2)c(=O)[nH]c1=O	5.45
COc1ccc(CN(CC(=O)NC2CCCC2)C(=O)CCC(=O)Nc2cc(C)on2)cc1	3.27
CCCCNC(=O)Nc1ccccc1Br	8.47
Cc1ccc(S(=O)(=O)NCC(=O)N2CCN(c3ccc(F)cc3)CC2)cc1	7.62
Cc1ccccc1CN(c1ccc(C(=O)Nc2ccccc2C(=O)NCc2ccco2)cc1)S(C)(=O)=O	-1.92
O=C(COc1ccccc1)Nc1nnc(-c2ccccc2)o1	-2.99
CC(C)C(=O)NC(c1cccc([N+](=O)[O-])c1)c1ccc2cccnc2c1O (centres unmarked)	11.7
Cn1nc(-c2ccc(N3CCCCC3)c(NC(=O)c3ccco3)c2)c2ccccc2c1=O	13
O=C(NC1CCCC1)C(c1ccccn1)N(C(=O)c1csnn1)c1ccccc1Cl (centres unmarked)	9.28
Cc1ccc(C)c(N/C(N)=N/c2nc(C)cc(C)n2)c1	-8.3

SMILES	hERG current change (%, negative = inhibition) at 1uM [%]
CCOc1ccc(-n2c(=S)sc3c(=O)[nH]c(SCC(=O)N4CCC(C)CC4)nc32)cc1	16.8
O=C(COC(=O)c1ccc(F)c(S(=O)(=O)N2CCCCC2)c1)NCc1ccc(F)cc1	4.94
O=C(Nc1ccncc1)Nc1ccccn1	9.93
CCN1CCN(C(=O)C2CCN(C(=O)Nc3ccccc3)CC2)CC1	-1.08
COc1ccccc1-c1c(C(F)(F)F)oc2cc(OS(C)(=O)=O)ccc2c1=O	5.3
CCCCC1(C(=O)OCC)NC(c2ccc(O)cc2)C2C(=O)N(c3ccccc3)C(=O)C21 (centres unmarked)	2.92
COC(=O)c1c(NC(=O)c2nc3ccccc3s2)sc2c1CCN(C(C)=O)C2	18.9
COc1ccccc1/C=N/NC(=O)c1c(-c2ccccc2)noc1C	14
CS(=O)(=O)c1ccc(C(=O)OCC(=O)NC(=O)C2CCCCC2)cc1[N+](=O)[O-]	-6.35
COc1ccc(NC(=O)C2CCN(S(=O)(=O)c3cccc4nonc34)CC2)cc1	14.3
Cc1cc(=O)oc2n[nH]c(-c3ccccc3)c12	5.57
O=C1CC(N(O)c2ccccc2)C(=O)N1Cc1ccccc1 (centres unmarked)	8.95
CCc1ccc(N(CC(=O)NCc2ccco2)C(=O)CCC(=O)Nc2ccccn2)cc1	2.87
COCCCN(C(=O)c1ccc2ccccc2n1)c1c(N)n(Cc2ccccc2)c(=O)[nH]c1=O	14.5
CCOC(=O)c1sc(NC(=O)CN2CC(C)OC(C)C2)nc1C (centres unmarked)	7.62
N#Cc1ccccc1N=C1CCCN1Cc1ccccc1	14.5
Cc1ccc(NC(=O)CSc2nc(=O)n(Cc3ccncc3)c3c2CCC3)c(C)c1	5.53
CCn1c(CNc2ccc(Cl)cc2)nnc1SCc1ccc(Cl)cc1	9.96
O=C(CN1C(=O)c2ccccc2C1=O)NCc1ccncc1	0.454
COc1cc(OC)c(OC)cc1CNC(=O)c1cc(=O)[nH]c2ccccc12	13.8
Cc1c(Cc2ccccc2)c(=O)oc2cc(O)ccc12	11.5
Cl.OC(COc1ccccc1)CN1CCN(Cc2ccc3c(c2)OCO3)CC1 (centres unmarked)	-34.3
